Test [1] deals with T1, CD28 (human, UniProt P10747 19-220).
T1 construct: whole, on cells; On human pan T cells and on H929 myeloma cells; the assay field says which; also called Cluster of Differentiation 28
In words: flow cytometry, human pan T cells. A general note: In flow cytometry, cells or beads pass a laser one at a time.

The target of test [2] is T1, CD28. In words: flow cytometry, human pan T cells, donor 2.
The target of test [3] is T1, CD28. In words: flow cytometry, H929 cells (BCMA+, CD28+); whole-cell EC50, antibody has BCMA and CD28 arms.
Test [4] has as its target T2, BCMA (human, UniProt Q02223 1-184).
T2 construct: whole, on cells; On NCI-H929 myeloma cells, which also carry CD28; also called B-cell maturation antigen; TNFRSF17
T2 sequence (looked up): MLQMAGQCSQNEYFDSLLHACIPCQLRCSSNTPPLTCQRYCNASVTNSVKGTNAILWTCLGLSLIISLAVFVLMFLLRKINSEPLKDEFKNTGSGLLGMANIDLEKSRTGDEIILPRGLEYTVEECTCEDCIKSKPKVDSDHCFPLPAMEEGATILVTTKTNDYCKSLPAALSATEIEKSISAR
The test is described as above.

B1: VB28B2 (other)
heavy 1: QVQLQQPGSELVRPGASVKLSCKASGYTFTSYWMHWVKQRHGQGLEWIGNIYPGSGRTNYDEKFKSKGTLTVDTSSRTAYMHLSSLTSEDSAVYYCTREHYGSNSHPMDYWGQGTSVTVSSASTKGPSVFPLAPSSKSTSGGTAALGCLVKDYFPEPVTVSWNSGALTSGVHTFPAVLQSSGLYSLSSVVTVPSSSLGTQTYICNVNHKPSNTKVDKKVEPKSCDKTHTCPPCPAPEAAGGPSVFLFPPKPKDTLMISRTPEVTCVVVSVSHEDPEVKFNWYVDGVEVHNAKTKPREEQYNSTYRVVSVLTVLHQDWLNGKEYKCKVSNKALPAPIEKTISKAKGQPREPQVYTLPPSREEMTKNQVSLWCLVKGFYPSDIAVEWESNGQPENNYKTTPPVLDSDGSFFLYSKLTVDKSRWQQGNVFSCSVMHEALHNHYTQKSLSLSPGGGSEGKSSGSGSESKSTGGSDIQMTQSPSSLSASVGDRVTITCRSSQSLVHSSGNTYLHWYQQKPGKAPKFLIYKVSNRFSGVPSRFSGSGSGTDFTLTISSLQPEDFATYYCSQSTHVPFTFGQGTKLEIKGGSEGKSSGSGSESKSTGGSQVQLQESGPGLVKPSETLSLTCTVSGYSITSGYFWNWIRQPPGKGLEWIGYISYDGSNNYNPSLKSRVTISRDTSKNQFSLKLSSVTAADTAVYYCASPSPGTGYAVDYWGQGTLVTVSS
light 1: DIQMTQSPASLSASVGETVTITCGASENIYGSLNWYQRKQGKSPQLLIYGATNLADGMSSRFSGSGSGRQFSLKISSLHPDDVATYYCQNLLSTPYTFGGGTKLELKRTVAAPSVFIFPPSDEQLKSGTASVVCLLNNFYPREAKVQWKVDNALQSGNSQESVTEQDSKDSTYSLSSTLTLSKADYEKHKVYACEVTHQGLSSPVTKSFNRGEC
heavy 2: QVQLQQPGSELVRPGASVKLSCKASGYTFTSYWMHWVKQRHGQGLEWIGNIYPGSGRTNYDEKFKSKGTLTVDTSSRTAYMHLSSLTSEDSAVYYCTREHYGSNSHPMDYWGQGTSVTVSSASTKGPSVFPLAPSSKSTSGGTAALGCLVKDYFPEPVTVSWNSGALTSGVHTFPAVLQSSGLYSLSSVVTVPSSSLGTQTYICNVNHKPSNTKVDKKVEPKSCDKTHTCPPCPAPEAAGGPSVFLFPPKPKDTLMISRTPEVTCVVVSVSHEDPEVKFNWYVDGVEVHNAKTKPREEQYNSTYRVVSVLTVLHQDWLNGKEYKCKVSNKALPAPIEKTISKAKGQPREPQVYTLPPSREEMTKNQVSLSCAVKGFYPSDIAVEWESNGQPENNYKTTPPVLDSDGSFFLVSKLTVDKSRWQQGNVFSCSVMHEALHNRFTQKSLSLSPGGGSEGKSSGSGSESKSTGGSEIVLTQSPGTLSLSPGERATLSCRASQSISSSFLTWYQQKPGQAPRLLIYGASSRATGIPDRFSGGGSGTDFTLTISRLEPEDFAVYYCQHYGSSPMYTFGQGTKLEIKGGSEGKSSGSGSESKSTGGS[about 100 residues not spelt out]DEGYSSGHYYGMDVWGQGTTVTVSS
light 2: DIQMTQSPASLSASVGETVTITCGASENIYGSLNWYQRKQGKSPQLLIYGATNLADGMSSRFSGSGSGRQFSLKISSLHPDDVATYYCQNLLSTPYTFGGGTKLELKRTVAAPSVFIFPPSDEQLKSGTASVVCLLNNFYPREAKVQWKVDNALQSGNSQESVTEQDSKDSTYSLSSTLTLSKADYEKHKVYACEVTHQGLSSPVTKSFNRGEC
notes: only variable domains are tied; linkers and constant regions are not; also called Vβ28B2
For the molecule B1, the half-maximal effective concentration (EC50) (commonly the concentration needed to bring the measured effect to its halfway point) in test [1] worked out at 0.06 µg/mL.

B2: VB28B35 (other)
scFv: DIQMTQSPSSLSASVGDRVTITCRSSQSLVHSSGNTYLHWYQQKPGKAPKFLIYKVSNRFSGVPSRFSGSGSGTDFTLTISSLQPEDFATYYCSQSTHVPFTFGQGTKLEIKGGSEGKSSGSGSESKSTGGSQVQLQESGPGLVKPSETLSLTCTVSGYSITSGYFWNWIRQPPGKGLEWIGYISYDGSNNYNPSLKSRVTISRDTSKNQFSLKLSSVTAADTAVYYCASPSPGTGYAVDYWGQGTLVTVSSEPKSSDKTHTCPPCPAPEAAGGPSVFLFPPKPKDTLMISRTPEVTCVVVSVSHEDPEVKFNWYVDGVEVHNAKTKPREEQYNSTYRVVSVLTVLHQDWLNGKEYKCKVSNKALPAPIEKTISKAKGQPREPQVYTLPPSREEMTKNQVSLWCLVKGFYPSDIAVEWESNGQPENNYKTTPPVLDSDGSFFLYSKLTVDKSRWQQGNVFSCSVMHEALHNHYTQKSLSLSPGK
heavy: QVQLQQPGSELVRPGASVKLSCKASGYTFTSYWMHWVKQRHGQGLEWIGNIYPGSGRTNYDEKFKSKGTLTVDTSSRTAYMHLSSLTSEDSAVYYCTREHYGSNSHPMDYWGQGTSVTVSSASTKGPSVFPLAPSSKSTSGGTAALGCLVKDYFPEPVTVSWNSGALTSGVHTFPAVLQSSGLYSLSSVVTVPSSSLGTQTYICNVNHKPSNTKVDKKVEPKSCDKTHTCPPCPAPEAAGGPSVFLFPPKPKDTLMISRTPEVTCVVVSVSHEDPEVKFNWYVDGVEVHNAKTKPREEQYNSTYRVVSVLTVLHQDWLNGKEYKCKVSNKALPAPIEKTISKAKGQPREPQVYTLPPSREEMTKNQVSLSCAVKGFYPSDIAVEWESNGQPENNYKTTPPVLDSDGSFFLVSKLTVDKSRWQQGNVFSCSVMHEALHNRFTQKSLSLSPGK
light: EIVLTQSPGTLSLSPGERATLSCRASQSISSSFLTWYQQKPGQAPRLLIYGASSRATGIPDRFSGGGSGTDFTLTISRLEPEDFAVYYCQHYGSSPMYTFGQGTKLEIKGGSEGKSSGSGSESKSTGGS[about 100 residues not spelt out]DEGYSSGHYYGMDVWGQGTTVTVSSGGSEGKSSGSGSESKSTGGSDIQMTQSPASLSASVGETVTITCGASENIYGSLNWYQRKQGKSPQLLIYGATNLADGMSSRFSGSGSGRQFSLKISSLHPDDVATYYCQNLLSTPYTFGGGTKLELKRTVAAPSVFIFPPSDEQLKSGTASVVCLLNNFYPREAKVQWKVDNALQSGNSQESVTEQDSKDSTYSLSSTLTLSKADYEKHKVYACEVTHQGLSSPVTKSFNRGEC
notes: Trispecific antibody Vβ17 × CD28 × BCMA, human IgG1; also called Vβ28B35
Turning to B2, the EC50 is greater than 10 µg/mL in test [2], less than 0.0046 µg/mL in test [3] and less than 0.0046 µg/mL in test [4].

B3: VB28B39 (other)
scFv: EIVLTQSPGTLSLSPGERATLSCRASQSISSSFLTWYQQKPGQAPRLLIYGASSRATGIPDRFSGGGSGTDFTLTISRLEPEDFAVYYCQHYGSSPMYTFGQGTKLEIKGGSEGKSSGSGSESKSTGGS[about 100 residues not spelt out]DEGYSSGHYYGMDVWGQGTTVTVSSEPKSSDKTHTCPPCPAPEAAGGPSVFLFPPKPKDTLMISRTPEVTCVVVSVSHEDPEVKFNWYVDGVEVHNAKTKPREEQYNSTYRVVSVLTVLHQDWLNGKEYKCKVSNKALPAPIEKTISKAKGQPREPQVYTLPPSREEMTKNQVSLWCLVKGFYPSDIAVEWESNGQPENNYKTTPPVLDSDGSFFLYSKLTVDKSRWQQGNVFSCSVMHEALHNHYTQKSLSLSPGK
heavy: QVQLQQPGSELVRPGASVKLSCKASGYTFTSYWMHWVKQRHGQGLEWIGNIYPGSGRTNYDEKFKSKGTLTVDTSSRTAYMHLSSLTSEDSAVYYCTREHYGSNSHPMDYWGQGTSVTVSSASTKGPSVFPLAPSSKSTSGGTAALGCLVKDYFPEPVTVSWNSGALTSGVHTFPAVLQSSGLYSLSSVVTVPSSSLGTQTYICNVNHKPSNTKVDKKVEPKSCDKTHTCPPCPAPEAAGGPSVFLFPPKPKDTLMISRTPEVTCVVVSVSHEDPEVKFNWYVDGVEVHNAKTKPREEQYNSTYRVVSVLTVLHQDWLNGKEYKCKVSNKALPAPIEKTISKAKGQPREPQVYTLPPSREEMTKNQVSLSCAVKGFYPSDIAVEWESNGQPENNYKTTPPVLDSDGSFFLVSKLTVDKSRWQQGNVFSCSVMHEALHNRFTQKSLSLSPGK
light: DIQMTQSPSSLSASVGDRVTITCRSSQSLVHSSGNTYLHWYQQKPGKAPKFLIYKVSNRFSGVPSRFSGSGSGTDFTLTISSLQPEDFATYYCSQSTHVPFTFGQGTKLEIKGGSEGKSSGSGSESKSTGGSQVQLQESGPGLVKPSETLSLTCTVSGYSITSGYFWNWIRQPPGKGLEWIGYISYDGSNNYNPSLKSRVTISRDTSKNQFSLKLSSVTAADTAVYYCASPSPGTGYAVDYWGQGTLVTVSSGGSEGKSSGSGSESKSTGGSDIQMTQSPASLSASVGETVTITCGASENIYGSLNWYQRKQGKSPQLLIYGATNLADGMSSRFSGSGSGRQFSLKISSLHPDDVATYYCQNLLSTPYTFGGGTKLELKRTVAAPSVFIFPPSDEQLKSGTASVVCLLNNFYPREAKVQWKVDNALQSGNSQESVTEQDSKDSTYSLSSTLTLSKADYEKHKVYACEVTHQGLSSPVTKSFNRGEC
notes: Trispecific antibody BCMA × CD28 × Vβ17, human IgG1; also called Vβ28B39
On to B3, for which the results for the EC50 in test [2], in test [3] and in test [4] were greater than 10 µg/mL, 0.0167 µg/mL and 0.0167 µg/mL, respectively.

The values above are taken from patent US20250043004A1 (Janssen / Centocor, published 2025).
